About 6,200 (6.6%) of roughly 94,000 compounds were called active. Inconclusive means that the source gave no clear call. Such entries were picked first, then a sample of the others. Calls follow the shape of the dose curve; as a rule, active = well fitted inhibition curve with a large enough effect; inconclusive = small, poorly fitted or top-dose-only effect; inactive = flat fitted curve, though single readings scatter. Where the call is inconclusive, the potency comes from a doubtful curve fit.
Assay: Cytotoxic Profiling in HEK 293 Cell Line of Diverse Libraries Using Quantitative High-Throughput Screening; also: nearly all actives have a fitted effect of over 60% in size
Conditions: HEK 293 viability, ATP luminescence (CellTiter-Glo), 48-72 h; activity change, negative = cytotoxicity: at 115 µM (top of the series) unless noted; series mostly up to 115 µM
Outline: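 HEK 293 cells seeded at 250 cells/well were exposed to compound for 48 or 72 hr at 37 degree Celsius. Viability taken as ATP content by CellTiter-Glo luminescence.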
% is scaled to controls: 0 for no effect and ±100 for the full control effect; potency is read from the fitted curve at half-maximal effect; tags tell the direction and shape of the fitted curve.

Row | SMILES | activity change, negative = cytotoxicity | Potency | outcome
1 | CC(C)CNC(=O)N1CCC(N2CC3CC(C2)[C@H]2CCCC(=O)N2C3)CC1 (stereo partly drawn) | inactive: -4.2% |  | 
2 | O=C(Nc1ccc(Oc2ccccc2)cc1)O[C@@H]1CO[C@H]2[C@@H]1OC[C@@H]2NC(=O)c1ccc(C(F)(F)F)cc1 |  | inconclusive: 39.8 µM [inhibitor, partial curve, poor fit] | 
3 | COc1cccc(-c2cn3cc(C(=O)NC4CCCCC4)nc3s2)c1 |  | inconclusive: 39.8 µM [inhibitor, full curve, poor fit] | 
4 | CCCN(C)c1nccnc1OC1CCN(C(=O)C(C)C)C1 (stereo not drawn) | inactive: -16.5% |  | 
5 | CCCNC(=O)N1CCOC[C@H](Oc2cccnc2)C1 | inactive: 2.59% [at 230 µM] |  | 
6 | CNC(=O)c1cc(C2CC2)nc2c1c(C1CCCN1[S+](=O)([O-])c1ccccc1)nn2C (stereo not drawn) |  | inconclusive: 39.8 µM [inhibitor, full curve] | 
7 | CCc1nnc([C@@H]2CC(F)(F)CN2C(=O)c2cc(C)oc2C)o1 |  | inconclusive: 28.2 µM [inhibitor, single point] | 
8 | CC1(CCCCc2ccccc2)COc2ccc(C(=O)NCc3ccncc3)cc2N1 (stereo not drawn) |  | active: 89.1 µM | 
9 | Cc1cccc(CN2CCCC(C(=O)Nc3cccc(-n4cccn4)c3)C2)n1 (stereo not drawn) |  | inconclusive: 89.1 µM [inhibitor, single point] | 
10 | COc1ccc(NC(=O)c2cc3c(s2)CN(C2CCCC2)C3)c(C)c1 |  | inconclusive: 56.2 µM [inhibitor, partial curve, poor fit] | 
11 | O=C(OCc1ccccc1)N1CCOCC12CCN(Cc1c[nH]c3ccccc13)CC2 |  | active: 56.2 µM | 
12 | COCCn1ccc2c(C3=CCOCC3)nc(-c3cccc4[nH]ncc34)cc21 |  | inconclusive: 56.2 µM [inhibitor, full curve] | 
13 | COc1ccc(Cn2c(=O)c(C(=O)N3CCN(C(=O)Nc4ccc(Cl)cc4)CC3)nc3cccnc32)cc1 |  | inconclusive: 50.1 µM [inhibitor, partial curve, poor fit] | 
14 | CN(C(=O)c1ccc(F)cc1)C1CCOc2ccccc21 (stereo not drawn) |  | inconclusive: 126 µM [inhibitor, single point] | 
15 | COc1ccccc1Nc1ccnc(N2CCCC(C(=O)N3CCC(C#N)CC3)C2)n1 (stereo not drawn) |  | inconclusive: 79.4 µM [inhibitor, partial curve] | 
16 | Cc1c(-c2ccccc2)[nH]c2c(CNC(=O)CCc3nncn3C)cc(Cl)cc12 |  | inconclusive: 56.2 µM [inhibitor, partial curve, poor fit] | 
17 | Cc1cc(F)ccc1NC(=O)c1ccc2c(c1)n(Cc1cccc(F)c1)c(=O)c1ccnn12 |  | inconclusive: 56.2 µM [inhibitor, partial curve, poor fit] | 
18 | CCC(=O)NCC12CCCC=C1N(C)C(=O)CC2 (stereo not drawn) |  |  | inactive
19 | COc1ccccc1Nc1ccnc(N2CCC[C@H]2C(=O)NCCc2ccccc2F)n1 |  | inconclusive: 20 µM [inhibitor, full curve, poor fit] | 
20 | COc1ccc(-c2cn3cc(C(=O)NCCO)nc3c(=O)n2CC2CC2)c(F)c1 |  | inconclusive: 89.1 µM [inhibitor, single point] | 
21 | COCCNC(=O)[C@@H]1CCC[C@@H](NC(=O)C2CC2)CN(C)C(=O)C1 | inactive: -20.8% [at 172 µM] |  | 

Row | SMILES | activity change, negative = cytotoxicity | Potency | outcome
22 | Cc1nc2cccnc2n1CC1CCCN(S(=O)(=O)c2ccccc2F)C1 (stereo not drawn) |  | inconclusive: 56.2 µM [inhibitor, partial curve, poor fit] | 
23 | COc1cccc(OC)c1-c1c(-c2ccccc2)ncn1CCCSC |  | inconclusive: 50.1 µM [inhibitor, partial curve, poor fit] | 
24 | COc1ccc(CNc2cc(Cl)nc3ccnn23)cc1OC |  | inconclusive: 79.4 µM [inhibitor, partial curve, poor fit] | 
25 | Cc1ccc(C(=O)N2CCC(CCC(=O)NC3CCCCC3)CC2)cc1 |  | inconclusive: 50.1 µM [inhibitor, partial curve, poor fit] | 
26 | O=C(CCn1cncn1)N1CCC2(CCC(=O)N(CCc3ccncc3)C2)CC1 | inactive: -9.63% |  | 
27 | CCNC(=O)O[C@H]1COCCN(c2nc3ccccc3o2)C1 |  |  | inactive [at 172 µM]
28 | COc1ccc(S(=O)(=O)NC[C@H]2Cn3c(-c4ccc(Cl)cc4)cnc3CO2)cc1 |  | active: 89.1 µM | 
29 | CCN(CC)c1ccc(C(=O)N2CCCC2c2nncn2Cc2ccncc2)cc1 (stereo not drawn) |  | inconclusive: 25.1 µM [inhibitor, full curve, poor fit] | 
30 | CC(C)C[C@@H]1N[C@H](C(=O)N2CCOCC2)Cc2cn(Cc3ccncc3)c3cccc1c23 |  | inconclusive: 79.4 µM [inhibitor, partial curve, poor fit] | 
31 | O=C(C[C@@H]1O[C@H](CNC(=O)c2ccco2)[C@@H](O)[C@H]1O)NCc1ccc(F)cc1 |  | inconclusive: 100 µM [inhibitor, partial curve, poor fit] | 
32 | COc1ccc(C(=O)NC2CCN(c3cc(-c4ccccc4)[nH]n3)CC2)c(C)c1 |  | inconclusive: 89.1 µM [inhibitor, single point] | 
33 | COc1ccc(C(=O)N2CCCC(n3c(C)cnc3C3CCC3)C2)cc1 (stereo not drawn) |  | inconclusive: 89.1 µM [inhibitor, single point] | 
34 | Cc1ccc([S+](=O)([O-])NC2CCN(C(=O)c3ccc(-c4cncnc4)cc3)CC2)cc1 |  |  | inactive
35 | O=C(Nc1cccc(-c2nnc3n2CCCC3)c1)c1cc(F)cc(F)c1 | inactive: -25.3% |  | 
36 | CCNC(=O)NC[C@@H]1C=C(C)[C@H](Cc2nnc(-c3ccccc3F)o2)C[C@H]1C(C)C |  | inconclusive: 70.8 µM [inhibitor, full curve, poor fit] | 
37 | COc1ccc(CN2CC(C)(NC(C)=O)C2)c2ccccc12 |  | inconclusive: 100 µM [inhibitor, partial curve, poor fit] | 
38 | Cc1ccccc1C(=O)NC1CCCN(c2cc(-c3ccc(F)cc3)[nH]n2)C1 (stereo not drawn) |  | inconclusive: 39.8 µM [inhibitor, partial curve, poor fit] | 
39 | Cc1cc(=O)n(CC(=O)Nc2ccc(Br)cc2F)c(N(C)Cc2ccccc2)n1 |  | inconclusive: 20 µM [inhibitor, full curve] | 
40 | O=C(NC1CCN(C(=O)c2ccc(-c3cccs3)cc2)CC1)c1ccccn1 |  | inconclusive: 50.1 µM [inhibitor, partial curve, poor fit] | 
41 | CSc1ccc(-c2ccc(C=O)cc2)cc1 |  | inconclusive: 141 µM [inhibitor, single point] | 
42 | O=C(c1ccc(Cl)nc1)N1CCN(CCn2nc3n(c2=O)CCCC3)CC1 | inactive: 0.134% |  | 

Row | SMILES | activity change, negative = cytotoxicity | Potency | outcome
43 | COCCn1c(=O)c2c(n1Cc1ccccc1)CN(C(=O)c1ccc(Oc3ccccc3)cc1)CC2 |  | inconclusive: 50.1 µM [inhibitor, partial curve, poor fit] | 
44 | CC(=O)N1CCN([C@H]2[C@@H]3OC[C@@H](O3)[C@@H](NCC3CCCCC3)[C@@H]2O)CC1 | inactive: -0.0973% [at 172 µM] |  | 
45 | CCC(c1cccs1)N1C(=O)[C@H]2CN(S(=O)(=O)c3ccc(C)cc3C)C[C@H]2C1=O (stereo partly drawn) |  | inconclusive: 35.5 µM [inhibitor, full curve] | 
46 | CC(C)(C)c1nc(C(=O)N2CCN(c3ncccn3)CC2)n2ccccc12 |  | inconclusive: 31.6 µM [inhibitor, partial curve, poor fit] | 
47 | CC(=O)N(C1CC1)C1CCOC2(CCN(C(=O)CCc3nc4ccccc4[nH]3)CC2)C1 (stereo not drawn) | inactive: 4.18% |  | 
48 | CCN(Cc1c(O)cccc1OC)CC1CCN(CCc2ccccc2C)CC1 |  | inconclusive: 17.8 µM [inhibitor, full curve, poor fit] | 
49 | CN(Cc1ccccc1)C(=O)C[C@@H]1CCNC[C@@H]1Cc1cc(-c2ccccc2)on1 |  | active: 25.1 µM | 
50 | O=C1CC(c2noc(Cc3ccc(F)cc3)n2)CN1c1ccc(F)cc1 (stereo not drawn) |  | inconclusive: 89.1 µM [inhibitor, single point] | 
51 | COc1ccc(CNc2cc3c(cn2)CN(C)CCN3)cc1OC |  | inconclusive: 112 µM [inhibitor, partial curve, poor fit] | 
52 | O=C1CN(S(=O)(=O)Cc2ccccc2)CC2(CCCCC2)N1CC1CC1 |  | inconclusive: 89.1 µM [inhibitor, single point] | 
53 | CN1C[C@@H](N)C[C@H]1c1nc(-c2ccc3c(c2)OCO3)no1 |  | inconclusive: 158 µM [inhibitor, single point] | 
54 | COC1CCN(C(=O)Cc2c[nH]c3ncc(-c4cnn(C)c4)cc23)CC1 |  | inconclusive: 100 µM [inhibitor, single point] | 
55 | CN(Cc1cnccn1)C(=O)c1csc2nc(-c3cccc(C(F)(F)F)c3)cn12 |  | inconclusive: 15.8 µM [inhibitor, full curve, poor fit] | 
56 | O=C(NCc1ccccc1Cl)C1CCN(C(=O)c2ccc(-c3cccs3)cc2)CC1 |  | inconclusive: 89.1 µM [inhibitor, partial curve, poor fit] | 
57 | COc1cccc(-c2ccc(C(=O)N3CCC(C(=O)N4CCN(Cc5ccccc5)CC4)CC3)cc2)c1 |  | inconclusive: 44.7 µM [inhibitor, partial curve, poor fit] | 
58 | Cn1ccnc1CN1CCCC12CCN(c1ccc(C(F)(F)F)cn1)CC2 |  | active: 50.1 µM | 
59 | COC1C(=O)N(c2cccc(F)c2)C12CCN(C(=O)c1ccncc1)CC2 (stereo not drawn) | inactive: -7.76% |  | 
60 | CCCN(CC1CC1)C(=O)C1CCc2ncc(-c3ccc(F)cc3)n2C1 (stereo not drawn) |  | inconclusive: 56.2 µM [inhibitor, partial curve, poor fit] | 
61 | Cc1ccc(C2=NC3(CCN(C(=O)c4cccc(F)c4)CC3)ON2)cc1 |  | inconclusive: 100 µM [inhibitor, single point] | 
62 | COc1ccc(NC(=O)N2CCCC(Cc3noc(-c4cnccn4)n3)C2)cc1 (stereo not drawn) | inactive: -7.15% |  | 
63 | CC(C)CNC(=O)c1cc(-c2ccccc2F)cc2c1OCCN2Cc1cccnc1 |  | active: 50.1 µM | 

Reference: PubChem BioAssay AID1345083 (National Center for Advancing Translational Sciences (NCATS), 2018)
